Measurements from the RNAGym collection of RNA variant scans (doi:10.7554/elife.90254).
The source gives no read counts; variants with many changes may rest on few reads.

B1: OR4K15 (parent)
chain: GUUAACGGUCAUAGGCCAUGGAAACUAGGAGCACCAUUUCGCUGCCAGUGAAGAAAUGAACAAAGAAAAUCUGGGCCAGGCAGGCAUCAAAAGAAAUAGUCUUGCGCUCAACCAGAAAGUCUGUAAUCAUUUUAAGGGUA

Variants of: B1
Assay: self-cleavage, relative activity (ratio to wild type); higher = more cleavage; in vitro, sequencing; the parent is a self-cleaving ribozyme

Variant	self-cleavage
GUUAGCGGUCAUAGGCCAUGGAGACUAGGAGCACCAUUUCGCUGCCAGUGAAGAAAUGAACCAAGUAAAUCUGGGCCAGGCAGGCAUCAAAAGAAAUAGUCCUGCGCUCAACCAGAAAGUCUGUAAUCAUUUUAAGGGUA [A5G A23G A62C A66U U102C]	1.02
GUUAACGGUCAUAGGCCAUGGAAACUAGGAGCACCAUUUCGCCGCCAGUGAAGAAAUGAACGAAGAAAAUCUGGGCCAGGCAGGCAUCAAAAGGAAUAGUCUUGCGCUCAACCAGAAAGUCUGUAAUCAUUUUAAGGGUA [U43C A62G A94G]	1.8
GCUAACGGCCAUAGGCCAUGGAAACUAGGAGCACCAUUUCGCUGCCAGUGAAGAAAUGGGCAAAGAAAAUCUGGGCCAGGCAGGCAUCAAGAGAAGUAGUCUUGCGCUCAACCAGGAAGUCAGUAAUCAUUUUAAGGGUA [U2C U9C A59G A60G A91G A96G A116G U122A]	0.45
GUUAACGGUCAUAGGCCAUGGAAACUAGGAGCUCCAUUUCGCUGCCAGUGAAGAAAUGAGCAAAGAAAAUCUGGGCCAGGCAGGCGUCAAAAGAAAUAGUCUUGCGCUCAACCAGAAAGUCUGUAAUCAUUUUAAGGGUA [A33U A60G A86G]	0.84
GAUAACGGUCAUAGGCCAUGGAAACUGGGAGCACCAUUUCGCUGCCAGUGAAGAAAUGGACAAAGAAAAUCUGGGCCAGGCGGGCAUCAAAGGAAAUAGUCUUGCGCUCAACCAGAAAGUCUGUAACCUUUUUAAGGGUA [U2A A27G A59G A82G A92G U127C A129U]	0
GUUAACGGUCAUAGGCCAUGGAAACUAGGAGCACCAUUUCGCUGCCAGUGAAGGAAUGAACAAAGAAAAUCUGGGCCAGGCAGGCAUCAAAAGAAAUAGUCUUGCGCUCAACCAGAAAGUCAGUAACCACUUUAAGGGUA [A54G U122A U127C U130C]	0.98
GUUAACGGUCAUAGGCCAUGGAAACUAGGAGCACCAUUUCGCCGCCAGGGAAGAAAUGAACAAAGAAAAUCUGGGCCAGGCAGGCAUCAAAAGAAAUGGUCUUGCGCUCAUCCAGAAAGUCAGUAAUCAUUUUAAGGGUA [U43C U49G A98G A111U U122A]	0.01
GUUAACGGCCAUAGGCCAUGGAAACUAGGAGCACCAUUUCGCUGCCAGUGAAGAAAUGAACAAAGAGAAUCUGGGCCAGGCAGGCAUCAAAGGAAAUAGUCUUGCGCUCAACCAGAAAGUCUGUAAUCAUUUUAAGGGUA [U9C A67G A92G]	1.48
GUUAACGGUCGUUGGCCAUGGAAACUAGGAGCACCAUUUCGCUGCCAGUGAGGAAAUGAACAAAGAAAAUCUGGGCCAGGCAGGCAUCAAAAGAAAUAGUCUUGCGCUCAACCAGAAAGUCUGUAAUCAUUUUAAGGGUA [A11G A13U A52G]	1.69
GUUAACGGUCACAGGCCAUGGAAACUAGGAGCGCCAUUUCGCUGCCAGUGAAGAAAUGAACAAAGAAGAUCUGGGCCAGGCGGGCAUCAAAAGAAAUAGUCUUGCGCUCAACCAGAAAGUCUGUAAUCAUUUUAAGGGUA [U12C A33G A68G A82G]	0.29
GCUAACGGUCAUAGGCCAUGGAAACUAGGAGCACCAUUUCGCUGCCAGUGAAGAAAUGAACAAAGAAAAUCUGGGCCAGGCAGGCAUCAAGAGAAAUAAUCUUGCGCUCAACCAGAAAGUCUGUAAUCAUUUUAAGGGUA [U2C A91G G99A]	0.17
GCUAACGGCCAUAGGCCAUGGAAACUAGGAGCACCAUUUCGCUGCCAGUGAAGAAAUGAACAUAGAAAAUCUGGGCCAGGCAGGCAUCAAAAGAAAUAGUCUUGCGCUCGACCAGAAAGUCUGUAAUCAUUUUAAGGGUA [U2C U9C A63U A110G]	0.23
GUUAGCGGUCAUAGGCCAUGGAAACUAGGAGCACCAUUUCGCUGCCAGUGAAGAAAUGAACAAAGAAUAUCUGGGCCAGGCAGGCAUCAAAAGAAAUAGUCUUGCGCUCACCCAGAAAGUCUGUAAUCAUUUUAAGGGUA [A5G A68U A111C]	0.08
GUUAACGGUCAUAGGCCAUGGGAACUAGGAGCACCAUUUCGCUGCCAGUGAAGAAAUGAACAAAGAAAAUCUGGGCCAGGCAGGCAUCAAAAGAAAUAGUCUUGCGCUCAACCUGAAAGUCUGUAGUCAUUUUAAGGGUA [A22G A114U A126G]	0.01
GUUAACGGUCAUAGGCCAUGGAAACUAGGAGCACCAUUCCGCUGCCAGUGAAGAAAUGAACAAAGAAUAUCUGGGCCAGGCAGGCAUCAAAAGAAAUAGUCUUGCGCUCAACCAGAAAGUCUGUAAUCAUUUUAAGGGUG [U39C A68U A140G]	0.98
GUUGACGGUCAUAGGCCAUGGAAACUAGGAGCACCAUUUCGCUGCCAGUGAAGAAAUGAACAAAGAAAAUCUGGGCCUGGCAGGCAUCAAAAGAAACAGUCUUGCGCUCAACCAGAAAGUCUGUAAUCAUUUUAAGGGUA [A4G A78U U97C]	0.32
GUUAACGGUCAUAGGCCAUGGAAACUAGGAGCACCAUUUCGCUGCCAGUGAAGAAAUGAACAAAGAAAAUCUGGGCCAGGCUGGCAUCAAAAGAAAUAGUCUUGCGCUCAACCAGAAGGUCCGUAAUCAUUUUAAGGGUA [A82U A118G U122C]	0.07
GUUAACGGUCAUAGGCCAUGGAAACUAGAAGCACCAUUUCGCUGCCAGUGAAGAGAUGAACAAAGAAAAUCUGGGCCAGGCAGGCAUCAAAAGAAAUAGUCUUGCGCUCAACCAGAGAGUCUGUAAUCAUUUUAAGGGUA [G29A A55G A117G]	2.78
GUGAACGGCCAUAGGCCAUGGAAACCAGGAGCACCAUUUCGCAGCCAGUGAAGAAAUGAACAAAGAGAAACUGGGCCAGGCAGGCAUCAAAGGAAAUAGUCUCGCGCUCAACCAGAAAGUCUGUAAUCAUUUUAAGGGUA [U3G U9C U26C U43A A67G U70A A92G U103C]	0.14
GUUAACGGCCAUUGGCCAUGGAAACUAGGAGCACCAUUUCGCUGCCAGUGAAGAAAUGAACAAAGAAAAUCUGGGCCAGGCAGGCUUCAAAAGAAAUAGUCAUGCGCUCAACCAGAAAGCCUGUAAUCAUUUUAAGGGUA [U9C A13U A86U U102A U120C]	0.25
GUUAACGGUCAUAGGCCAUGGAAACUAGGAGCACCAUUUCGCUGCCAGUGAAGAAAUGAACAAAGAAAAUCUGGGCCAGGCAGGCAUCGAAGGUAAUAGUCUUGCGCUCGACCGGAAAGCCUGUAAUCAUUCUAAGGGUA [A89G A92G A94U A110G A114G U120C U132C]	0.01

Variant	self-cleavage
GUUAACGGUCAUAGGCCAUGGAAACUAGGAGCAUCAUUUCGCUGCCAGUGAAGAAAUGAACAAAGAAAAUCUGGGCCAGGCAGGCACCAAAAGAAAUGAUCUUGCGCUCAACCAGAAAGUCUGUAAUCAUUUUAAGGGUA [C34U U87C A98G G99A]	0.33
GUUAACGGUCAAAGGCCAUGGAAACUAGGAGCACCAUUUCGCAGCCAGUGAAGAAAUGAACAAAGAAAAUCUGGGCCAGGCAGGCAUCAAAUGAAAUAGUCUUGCGCUCAACCAGAAAGUCUGUAAUCAUUUUAAGGGUA [U12A U43A A92U]	0.21
GUUAACGGUCCUAGGCCAUGGAAACUAGGGGCUCCAUUUCGCUGCCAGUGAAGAAAUGAACAAAGAAAAUCUGGGCCAGGCAGGCAUCAAAAGAAAUAGUCUUGCGCUCAACCAGAAAGUCUGUAAUCGUUUUAAGGGUA [A11C A30G A33U A129G]	0.85
GUUAACGGUCAUAGGCCAUGGAAACUAGGAGCACCAUUUCGCUGCCAGUGAAGAAACGAACAAGGAAAAUCUGGGCCAGGCAGGCAUCAAAAGAAGUAGUCUUGCGCUCAACCAGAAAGUCUGUAAUCAUUUUAAGGGUA [U57C A64G A96G]	1.58
GUUAACGGUCAUAGGCCAUGGAGACUAGGAGCACCAUUUCGCUGCCAGUGAAGAAAUGAACAAAGAAAAUCUGGGCCAGGCAGGCAUCAAAAGUAAUGGUCUUGCGCUCAACCAGAAGGUCUGUAAUCAUUUUAAGGGUA [A23G A94U A98G A118G]	0.33
GUUAACGGUCAUAGGCCAUGGAAAUUAGGAGCACCAUUUCGCUGCCGGUGAAGAAACGAACAAAGAAAAUCUGGGCCAGGCAGGCAUCAAAAGAAAUAGUCUUGCGCUCAAUCAGAAAGUCUGUAAUCAUUUUAAGGGUA [C25U A47G U57C C112U]	0.03
GUUAACGGUCAUAGGCCAUGGAAACUAGGAGCACCAUUUCGCUGCCUGUGAAGAAACGAACAAAGAAAGUCUGGGCCAGGCAGGCAUCAAAAGGAAUAGUCUUGCGCUCCACCAGAAAGUCUGUAAUCAUUUUAAGGGUA [A47U U57C A69G A94G A110C]	0.04
GUUAAUGGUCAUAGGCCAUGGAAGCUAGGAGCACCAUUUCGCUACCAGUGAAGAGAUGAACAAAGAAAAUCUGGGCCAGGCAGGCAUCAAAAGAAAUAGUCUUGCGCUCAACCAGAAAGUCUGUAAUCAUUUUAAGGGUA [C6U A24G G44A A55G]	0.79
GUUAACGGUCAUAGGCCAUGGAAACUAGGAGCACCAUUUCGCUGCCAGUGAAGGAAUGAACAAAGAAUAACUGGGCCAGGCAGGCACCAAAAGAAAUAGUCCUGCGCUCAACCAGAAAGUCUGUAAUCAUUUUAAGGGUA [A54G A68U U70A U87C U102C]	1.16
GUUAACGGUCAUAGGACAUGGAAACUAGGGGCACCAUUUCGCUGCCAGUGAGGAAAUGAACAAAGAAAAUCUGGGCCAGGCAGGCAUCAAAAGAAGUAGUCUUGCGCUCAACCAGAAAGUCUGUAAUCAUUUUAAGGGUA [C16A A30G A52G A96G]	0.84
GUUAACGGUCAUAGGCCAUGGAACCUAGGAGCACCAUCUCGCUGCCAGUGAAGAAAUGAACAAAGAAAAUCUGGGCCAGGCAGGCAUCAAAAGAAAUAGUCUUGCGCUUAACCAGAAAGUCUGUAAUCAUUUUAAGGGUA [A24C U38C C109U]	0.7
GUUAACGGCCAUAGGCCAUGGGAACUAGGAGCACCAUUUCGCUGCCAGCGAAGAAAUGUACAAAGAAAAUCUGGGCCAGGCAGGCGUCAAAAGGAAUAGUCUUGCGCUCAACCAGAAAGUCUGUAAUCAUUUUAAGGGUA [U9C A22G U49C A59U A86G A94G]	2.24
GUUAACGGUCAUAGGCCAUGGAAACUAGGAGCACCAUUUCGCUGCCAGUGAAGAAAUGAACAAAGGAAAUCUGGGCCAGGCGGGCAUCAAAAGAAGUAGUCUUGCGCUCAACCAGAAAGUCUGUAAUCAUUUUAAGGGUA [A66G A82G A96G]	0.72
GUUAACGGUCAUAGGCCAUGGAAACUAGGAGCACCAUCUCGCUGCCAGUGAUGAAAUGAACAAAGAAAAUCCGGGCCAGGCAGGCAUCGAAAGAAAUAGUCUUGCGCUCAACCAGAAAGUCUGUAAUCAUUUUAAGGGUA [U38C A52U U72C A89G]	0.26
GUUAACGGCCAUAGGCCAUGGAAACUAGGAGCGCCAUUUCGCUGCCAGUGAAGAAAUGAACAAAGAAAAUCUGGGCCAGGCAGGCACCAAAGGAAAUAGUCUCGCGCUCAACCAGAAAGUCUGUAAUCAUUUCAAGGGUA [U9C A33G U87C A92G U103C U133C]	0.34
GUUAACGGUCAUAGGCCAUGGAAACUAGGAGCACCAUUUCGCUGCCAGUGGAGUAAUGAACAAAGAAAAUCUGGGCCAGGCAGGCAUCAGAAGAAAUAGUCUUGCGCUCAACCAGAAAGUCUGUAAUCAUUUUAAGGGUA [A51G A54U A90G]	1.93
GUUAACGGUCAUAGGCCAUGGAGACCAGGAGCACCAUUUCGCUGCCAGUGAAGAAAUGAACAAAGAAAAUUUGGGCCAGGCAGGCAUCAAAAGAAAUAGUCCUGCGCUCAACCAGAAAGUCUGUAAUCAUUUUAAGGGUA [A23G U26C C71U U102C]	0.39
GUUAACGGUCAUAGGCCAUGGAAACUAGGAGCACCAUAUCGCUGCCAGUGAAGAUAUGAACAAAGAAAAUCUGGGCCAGGCAGGCAUCAAAAGAAAUAGUCUUGCGCUCAACCAGAAAGUCUGUAAUCAUUCUAAGGGUA [U38A A55U U132C]	2.17
GUUAACGGUCAUAGGCCAUGGAAACUAGGAGCACCAUUUCGCUGCCAGUGAAGAAAUGAACUAAGAAGAUCUGGGCCAGGCAGGCAUCAAAAGAAAUAGUCUUGCGCUCAACCGGGAAGUCAGUAAUCAUUUUAAGGGUA [A62U A68G A114G A116G U122A]	0.06
GUUAACGGUCAUAGGCCAUGGAAACUAGGAGCACCAUUCCGCUGCCAGUGAAGAAAUGAACAAAGAAAGUCUGGGCCAGGCAGGCAUCAAAAGAAAUAGUCUUGCGCUCAACCAGAAAGUCUGUAAUCAUUUUAUGGGUA [U39C A69G A135U]	2.04
